This is an account of results in publication PMC4336329 (PLoS ONE, 2015).

SMILES strings stand for the structures. Screen size: about 310,000 compounds; about 14,000 (4.5%) showed an effect of 50% or more. The effect is printed as a negative number. The list shows a part of the results.
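Further: peak tail current of the secondary pulse compared with the same well before compound.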

Sequence of human ether-à-go-go-related gene (hERG) potassium channel (Q12809 whole entry, looked up): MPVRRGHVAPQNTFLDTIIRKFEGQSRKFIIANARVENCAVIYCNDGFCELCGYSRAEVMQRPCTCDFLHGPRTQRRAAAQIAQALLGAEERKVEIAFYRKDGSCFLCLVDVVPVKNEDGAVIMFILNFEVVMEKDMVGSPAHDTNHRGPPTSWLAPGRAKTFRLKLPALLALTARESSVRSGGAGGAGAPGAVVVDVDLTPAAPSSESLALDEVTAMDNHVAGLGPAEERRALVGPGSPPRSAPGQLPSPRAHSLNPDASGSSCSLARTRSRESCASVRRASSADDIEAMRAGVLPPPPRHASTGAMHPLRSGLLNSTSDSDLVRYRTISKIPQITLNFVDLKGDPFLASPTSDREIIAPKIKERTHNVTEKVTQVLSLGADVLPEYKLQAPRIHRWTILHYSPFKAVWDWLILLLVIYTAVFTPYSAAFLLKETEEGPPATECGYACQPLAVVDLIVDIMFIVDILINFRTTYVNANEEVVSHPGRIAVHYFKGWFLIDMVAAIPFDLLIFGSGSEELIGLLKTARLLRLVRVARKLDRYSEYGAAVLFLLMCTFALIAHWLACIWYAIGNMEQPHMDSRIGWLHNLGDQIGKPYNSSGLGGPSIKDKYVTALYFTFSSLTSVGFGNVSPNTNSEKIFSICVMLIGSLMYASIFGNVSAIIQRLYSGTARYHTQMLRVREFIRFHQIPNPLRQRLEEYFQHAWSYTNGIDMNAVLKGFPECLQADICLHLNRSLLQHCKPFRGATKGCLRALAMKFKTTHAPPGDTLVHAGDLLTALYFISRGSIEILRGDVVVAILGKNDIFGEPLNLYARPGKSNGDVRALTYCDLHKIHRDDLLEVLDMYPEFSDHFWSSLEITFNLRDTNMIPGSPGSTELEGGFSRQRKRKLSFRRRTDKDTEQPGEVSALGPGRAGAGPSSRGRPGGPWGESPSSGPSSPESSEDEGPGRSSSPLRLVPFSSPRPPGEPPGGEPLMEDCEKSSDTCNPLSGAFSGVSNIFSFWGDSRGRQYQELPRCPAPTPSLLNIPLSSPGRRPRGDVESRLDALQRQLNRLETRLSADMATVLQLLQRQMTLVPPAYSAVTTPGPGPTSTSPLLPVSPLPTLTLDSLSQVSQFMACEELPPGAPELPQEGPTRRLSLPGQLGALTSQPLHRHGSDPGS

The experiment has as its target human ether-à-go-go-related gene (hERG) potassium channel (human, UniProt Q12809). The experiment is described as follows: primary screen, population patch clamp on CHO cells stably expressing hERG.
In the case of `c1ccc(-c2nnc(-c3ccccn3)s2)nc1`, the “hERG current change (%, negative = inhibition) at 10uM” value is 14.4%. In the case of `Cc1cccc(-c2ccc(NC(=O)C3CCN(CC4CC4)CC3)cc2)c1` it was -70.9%; in that of `CCC(C)(C(=O)NC1CCCCC1)N(C(=O)CNC(C)=O)c1c(C)n(C)n(-c2ccccc2)c1=O` (centres unmarked), 6.14%; in that of `COc1cc(/C=C/C(=O)O)cc(S(=O)(=O)Nc2ccc3[nH]c(=O)[nH]c3c2)c1OC`, 14.9%. The value for `O=C(NNC(=S)Nc1cccc(C(F)(F)F)c1)c1ccc(Cl)cc1Cl` was 17.5%. The value for `COc1ccc(C(=O)COC(=O)CCN2C(=O)C3C4CC(C(Br)C4Br)C3C2=O)cc1` (centres unmarked) was 11.5%.

For the molecule `CC(C)(C)OC(=O)NCCCCCc1nnc(SCc2c(F)cccc2Cl)o1`, the “hERG current change (%, negative = inhibition) at 10uM” value is -3.15%. In the case of `Cc1cc(C(=O)CSc2nc3ccc(Cl)cc3[nH]2)c(C)n1Cc1ccco1` it was 6.99%; in that of `CCN(CC(=O)Nc1ccccc1C(F)(F)F)C(=O)c1cccc(S(=O)(=O)N2CCN(C)CC2)c1`, 0.426%. The value for `Cc1ccc(S(=O)(=O)N2CCN(C(=O)c3ccc4c(c3)OCO4)CC2)cc1` was -17.4%; that for `CSc1nc2ccsc2c(=O)n1-c1ccccc1` was -3.55%. With `CN(C)C(CNC(=O)CCCN1C(=O)c2cccc3cccc(c23)C1=O)c1ccccc1` (centres unmarked), the “hERG current change (%, negative = inhibition) at 10uM” value was -46.2%.

As to `CCCCC(=O)Nc1cc([N+](=O)[O-])ccc1Cl`, the “hERG current change (%, negative = inhibition) at 10uM” value is reported as 10.6%. In the case of `Cc1ccccc1-c1cc(C(=O)N/N=C/c2cccnc2)c2ccccc2n1` it was -3.87%; in that of `CC1(C)Cc2c(sc3ncnc(N)c23)CO1`, -3.03%. As for `COc1ccc(C2=Nn3c(nnc3C(F)(F)F)SC2)cc1`, the “hERG current change (%, negative = inhibition) at 10uM” value was 7.16%. The value for `C/C(=N\Nc1ccc(S(N)(=O)=O)cc1[N+](=O)[O-])c1cccnc1` was 20.1%. In the case of `CCCCn1c(N)c(N(CC)C(=O)C2CCC2)c(=O)[nH]c1=O` it was 7.9%.

On to `COc1ccc(OC)c(/C=N/NC(=O)CCCC(=O)Nc2cccc(Br)c2)c1`, for which the “hERG current change (%, negative = inhibition) at 10uM” value worked out at 12%.

As to `CC1=C(C(=O)OCC2CCCO2)C(c2ccc(F)cc2)NC(=O)N1` (centres unmarked), the “hERG current change (%, negative = inhibition) at 10uM” value worked out at 21.5%. In the case of `COc1ccc(OC)c(NC(=O)CCn2ccnc2)c1` it was 18.3%; in that of `COc1ccc(N(C(=O)c2ccc(F)cc2)C2=CC3CCC(C2)N3C)cc1.Cl` (centres unmarked), -71.5%; in that of `CC(C)(C)NC(=O)CSc1nnc(-c2ccccn2)n1Cc1ccccc1`, -7.05%.

`COc1ccc(OC)c(C2CC(=O)C3=C(C2)NC(=O)CC3c2ccc(O)c(OC)c2)c1` (centres unmarked): the “hERG current change (%, negative = inhibition) at 10uM” value is reported as -5.31%. The value for `COc1cc(/C(C)=C/c2ccccc2)c2c(c1)oc1ccccc12` was 10.3%; that for `COCCOc1ccc(C(F)(F)F)cc1NC(=O)COC(=O)C12CC3CC(CC(O)(C3)C1)C2` was -42.3%.

Take `O=C(c1ccccc1)C1CCN(c2ncccc2[N+](=O)[O-])CC1`: the “hERG current change (%, negative = inhibition) at 10uM” value was -15.8%.

As for `CCOC(=O)c1sc(N2C(=O)C(O)=C(C(=O)c3ccco3)C2c2cccc(Cl)c2)nc1C` (centres unmarked), the “hERG current change (%, negative = inhibition) at 10uM” value was found to be 6.49%.

Take `CC(CCc1ccco1)NC(=O)Nc1cccc(F)c1` (centres unmarked): the “hERG current change (%, negative = inhibition) at 10uM” value was -42.4%. Consider `CCOC(=O)C1CCN(C(C)C(=O)c2c(C)[nH]c3cc(C)ccc23)CC1` (centres unmarked), for which the “hERG current change (%, negative = inhibition) at 10uM” value was -76.7%. As for `COc1ccc2[nH]c3nc(SCc4nnc(-c5ccc(C)cc5)o4)nnc3c2c1`, the “hERG current change (%, negative = inhibition) at 10uM” value is 1.13%. The value for `O=C(c1n[nH]c2c1CCCC2)n1ccnc1` was 11.9%. The value for `COc1ccc(S(=O)(=O)N2CCc3cc(OC)c(OC)cc3C2)cc1` was -13%; that for `CC(C)NS(=O)(=O)c1ccc(NC(=O)C(C)Oc2ccc(C(=O)c3ccccc3)cc2)cc1` (centres unmarked) was -14.8%; that for `COCCN(C(=O)c1cc(Cl)ccn1)c1c(N)n(Cc2ccccc2)c(=O)[nH]c1=O` was 7.36%. In the case of `Cl.OC(CNC1CCCC1)COCCOc1ccc(Br)cc1` (centres unmarked) it was -27.4%. With `O=C(NCc1ccc(Cl)cc1)c1noc2c1CCCC2`, the “hERG current change (%, negative = inhibition) at 10uM” value is given as -25.6%.

With `CCCCN1C(=O)N(C)C2NC(=O)NC21` (centres unmarked), the “hERG current change (%, negative = inhibition) at 10uM” value is 4.9%. The value for `CC(C)OCCCNC(=O)C(=O)NCCCOC(C)C` was 4.08%; that for `COc1ccc(CCNc2oc(COc3ccccc3)nc2C#N)cc1` was -7.91%. In the case of `COc1cccc(-c2cnc(NCc3cc(Cl)ccc3O)n2C)c1.O=C(O)C(=O)O`, the “hERG current change (%, negative = inhibition) at 10uM” value is recorded as -24.1%.

`COc1cc(C)c(Cl)cc1S(=O)(=O)n1ccnc1C`: the “hERG current change (%, negative = inhibition) at 10uM” value is reported as 6.99%. On to `COc1cc2c(C)nc(C)c(C#N)c2cc1OC.Cl`, for which the “hERG current change (%, negative = inhibition) at 10uM” value is recorded as -5.92%. `CC(=O)NC1(C(F)(F)F)N=C2SCCN2C1=O` (centres unmarked): the “hERG current change (%, negative = inhibition) at 10uM” value worked out at 7.4%.
